# In article PMC7819943, “Rice protein-binding microarrays: a tool to detect cis-acting elements near promoter regions in rice”:
# The list shows a part of the results.
# Biological target: T1, OsWOX13 (Oryza sativa, UniProt Q5QMM3 1-267)
# T1 sequence: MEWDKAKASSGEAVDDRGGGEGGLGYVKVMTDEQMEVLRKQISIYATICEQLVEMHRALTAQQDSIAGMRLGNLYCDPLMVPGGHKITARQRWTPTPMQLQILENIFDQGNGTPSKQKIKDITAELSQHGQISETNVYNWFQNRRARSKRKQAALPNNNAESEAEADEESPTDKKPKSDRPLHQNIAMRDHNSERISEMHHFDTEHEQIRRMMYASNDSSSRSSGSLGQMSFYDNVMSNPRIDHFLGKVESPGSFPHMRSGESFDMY
# Assay: protein-binding microarray (RPBM); PBS, 2% BSA, 51.3 ng/ul salmon testes DNA, 50 uM zinc acetate, 200 nM TF, 25 C, 1 h; high values mean tight binding
# Conditions: protein: recombinant; tags: N-terminal polyhistidine and DsRed monomer fusion (pET32a); label: CyDye5-dUTP incorporated in the synthesized complementary strand; 3' TTTTT single-stranded linker to array surface; dsDNA, one strand shown
# Procedure, shortened: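 An Axon 4000B scanner gave the binding signal as per-feature fluorescence intensity in arbitrary units. This followed washing of a custom Agilent array that had been incubated for 1 h at 25 °C with 200 nM protein in PBS, 2% BSA, salmon testes DNA and 50 µM zinc acetate. The proteins were transcription factors fused at the N-terminus to polyhistidine and DsRed, expressed in E. coli BL21-CodonPlus and purified on Ni–NTA.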
row,Sequence,binding signal
1,TCAAATTGAAATTTTAGTACTTAATTAGGATCAATATACACGGAGTCACCTAGTGCAG,30800 fluorescence intensity (a.u.)
2,TACTTATCAACCAAAATTTAAATTTTCAACCTTAAATTTACGGAGTCACCTAGTGCAG,6860 fluorescence intensity (a.u.)
3,ATTACCGATACTGACAATTATCAATACCGACTGAAACGGTCGGAGTCACCTAGTGCAG,4280 fluorescence intensity (a.u.)
4,ATTACATTGACTAATAGATGATTTAGAGCTAATAGTGGGCCGGAGTCACCTAGTGCAG,25200 fluorescence intensity (a.u.)
5,AAGGCAAATTGACGGTACAAAGTTCAACACGCTAATTAGTCGGAGTCACCTAGTGCAG,31900 fluorescence intensity (a.u.)
6,TCCAATCATTTTGTGTCTTGTAGGTGATCCATTCTTTCTTCGGAGTCACCTAGTGCAG,7000 fluorescence intensity (a.u.)
7,AATATATCCAATTATTGATTTGATTAAACTAATTTAGTATCGGAGTCACCTAGTGCAG,41900 fluorescence intensity (a.u.)
8,TGACTTGATTTAACATCAAGGGCCTATTCAGATTATAGAACGGAGTCACCTAGTGCAG,19500 fluorescence intensity (a.u.)
9,ACTAATAATTGGCCTTAATCAGCTAGTACAATTCTATCACCGGAGTCACCTAGTGCAG,26800 fluorescence intensity (a.u.)
10,CCACAAATTTCGGTCAAACTAATTACATAGTATTAATATCCGGAGTCACCTAGTGCAG,4360 fluorescence intensity (a.u.)
11,TTATAATTACTACATTATAATAAAAGTAAAATTGTATTTACGGAGTCACCTAGTGCAG,12100 fluorescence intensity (a.u.)
12,ATAGATTTGAATAGATCTTTCTTCATATTTATATAGTATCCGGAGTCACCTAGTGCAG,5170 fluorescence intensity (a.u.)
13,TTTGGTTCATATCATAATTATGGCTCGTCACATTTCCTCTCGGAGTCACCTAGTGCAG,8410 fluorescence intensity (a.u.)
14,ATGCTGCAATTAATTGAGGAGGAAAGCTCCCATTAGCAATCGGAGTCACCTAGTGCAG,19200 fluorescence intensity (a.u.)
15,GTTAATTTGTCAAATTTCATGCGAGAGAGAGAGAGAGAGACGGAGTCACCTAGTGCAG,16800 fluorescence intensity (a.u.)
16,GAAGTCAAATTTAGCCAATCTCTGGGAGAGATTATTATTTCGGAGTCACCTAGTGCAG,4490 fluorescence intensity (a.u.)
17,CCATTCATCATCACGTGCAATTAACCAACCCATCCGCGCCCGGAGTCACCTAGTGCAG,8540 fluorescence intensity (a.u.)
18,TTAGTAATTAGCCATTGCCCATGCAACCTAAACCAAAACACGGAGTCACCTAGTGCAG,6580 fluorescence intensity (a.u.)
19,AGTAGATTTAGTTCTGTTTTATTTATTGATACTTGCCGATCGGAGTCACCTAGTGCAG,5250 fluorescence intensity (a.u.)
20,CTTCGATTGAACAATTAGGTTTGCGCTTGCTTGCCCAAGACGGAGTCACCTAGTGCAG,17600 fluorescence intensity (a.u.)
21,AATATGTCATCTTATGATTATAATTATATGCCAATCCAACCGGAGTCACCTAGTGCAG,17600 fluorescence intensity (a.u.)
22,GACTAAATCAAGTTTAAACAACTTCATTCAAAATTATTCACGGAGTCACCTAGTGCAG,4880 fluorescence intensity (a.u.)
23,AAATTAGTAATTTATAGTTTAAAATGGGCCATTTTATATGCGGAGTCACCTAGTGCAG,15900 fluorescence intensity (a.u.)
24,CACGTTTAACATAATTTTAGAATTTCAATATAGTTTTGTGCGGAGTCACCTAGTGCAG,6790 fluorescence intensity (a.u.)
25,TTAAAATTTATATTTACTAAAAGTTCCGTCAAACAGTTTACGGAGTCACCTAGTGCAG,4040 fluorescence intensity (a.u.)
26,GCAAATGGATTGTACAACTATGGAAGGGGCAGGTTCGAGGCGGAGTCACCTAGTGCAG,5170 fluorescence intensity (a.u.)
27,TAGCATATGATTAATGGAGTATTAATCTCTACTATTATAACGGAGTCACCTAGTGCAG,3970 fluorescence intensity (a.u.)

row,Sequence,binding signal
1,GTATTTATTAATTTCAAATTTCTGAACTATTAAAACAAGACGGAGTCACCTAGTGCAG,4380 fluorescence intensity (a.u.)
2,CTAATATGTAAATTTGACAACCTCATCTAAGGCACTATTACGGAGTCACCTAGTGCAG,4670 fluorescence intensity (a.u.)
3,TACGAATGATGGGGTGATTAGTCCTTATATTTATACACCGCGGAGTCACCTAGTGCAG,11600 fluorescence intensity (a.u.)
4,TTGCTGTGATTCCTGTGTTATCATTGTGTTTGATTTCCCTCGGAGTCACCTAGTGCAG,3960 fluorescence intensity (a.u.)
5,AAATTGACAGGTGAAAGAGCTGTGATAAAGAAGCAAGCCGCGGAGTCACCTAGTGCAG,18100 fluorescence intensity (a.u.)
6,CTGATTTGCTTGAGTTGTTGATATGCAGGGACAATGTTGTCGGAGTCACCTAGTGCAG,14700 fluorescence intensity (a.u.)
7,AAGCTGATTGAAGAGAACTCCTCACTGTCAGGCAAACTTTCGGAGTCACCTAGTGCAG,32000 fluorescence intensity (a.u.)
8,TTTGCTCATAAATTTATAAAATTTGTATGATGTTCACGAGCGGAGTCACCTAGTGCAG,7280 fluorescence intensity (a.u.)
9,AAGTTAACTCGATCTCGTGTAATTTGCAATACAAGATTTGCGGAGTCACCTAGTGCAG,3880 fluorescence intensity (a.u.)
10,ATCATTACAACAATGTTAAATTGACCAACATACAACACTACGGAGTCACCTAGTGCAG,4720 fluorescence intensity (a.u.)
11,ATGTAACTATAGTGTAATTACACGGTAACTTTTAGTAGATCGGAGTCACCTAGTGCAG,13300 fluorescence intensity (a.u.)
12,AATAGTAATTATTATTTATATCACTATCATAACGAACAACCGGAGTCACCTAGTGCAG,14200 fluorescence intensity (a.u.)
13,CCGTGCTCAACTACCCAATCACTCCAAATTAAGCTCGCATCGGAGTCACCTAGTGCAG,3750 fluorescence intensity (a.u.)
14,GGCATGAAATTACATTGAATGATTTCTATGTATTATGTGACGGAGTCACCTAGTGCAG,6970 fluorescence intensity (a.u.)
15,TTGATGTTAAATTTAATGACACTAATTTAGTGTTGTAAATCGGAGTCACCTAGTGCAG,22300 fluorescence intensity (a.u.)
16,CAAAACTGTCATTTTGTATGATTTCTCTCTCATCAATTGGCGGAGTCACCTAGTGCAG,17500 fluorescence intensity (a.u.)
17,TTAACAAATTTGCCACACTTGTGTTTATCAACCAAACACCCGGAGTCACCTAGTGCAG,9300 fluorescence intensity (a.u.)
18,TCTTGTTAATTGGATCACGCCGCACCGCACTTGTCCGTGTCGGAGTCACCTAGTGCAG,35300 fluorescence intensity (a.u.)
19,AAATTAATTAGAGGCTGCAATATATATATTAGCGGATCGACGGAGTCACCTAGTGCAG,21600 fluorescence intensity (a.u.)
20,TTAATTAAATTTGTCTGTGTGAGCTGGGATAGGATGCTGCCGGAGTCACCTAGTGCAG,43200 fluorescence intensity (a.u.)
21,CCATCAACAACTCTGATTAGAATGGAATTAACGTTCTTCTCGGAGTCACCTAGTGCAG,9000 fluorescence intensity (a.u.)
22,TGCCCAGCCAATCACCGAACGAAGCCGGCGCCGCTTTCTTCGGAGTCACCTAGTGCAG,4040 fluorescence intensity (a.u.)
23,TGAAATTTCTACGTAAATCAAGGGCTCGTTCACTTTGCTACGGAGTCACCTAGTGCAG,5380 fluorescence intensity (a.u.)
24,TACAAGGTCCATGATTTATGATTTTGTTTCAGACCATGGACGGAGTCACCTAGTGCAG,4550 fluorescence intensity (a.u.)
25,CTTTGATGACTTCCCGTCCATCAGAGTCAACAGCTGACCACGGAGTCACCTAGTGCAG,5720 fluorescence intensity (a.u.)
26,TTTAAAATTAATGCTGTGTTATGTGTCCTTAAGTCCTTGACGGAGTCACCTAGTGCAG,5440 fluorescence intensity (a.u.)
27,CGCTGCTTCTGATCATCTCCCGTTCTTGCATTCTTCTTCTCGGAGTCACCTAGTGCAG,4180 fluorescence intensity (a.u.)
